Our source for the self-cleavage values is the RNAGym collection of RNA variant scans (doi:10.7554/elife.90254).

The source gives no read counts; variants with many changes may rest on few reads.

The chains are these.
B1: LINE1-full (parent)
chain: UACGUAGGUGGUUUUCCCCUGAUAGUGCUAAGGGGGCCUGGAAGUUUGGACUGGGCAGAGCUCAACACAGCGUGGCAAAGUGGCUGUGGCUAGACUGCCUCUCUGGAUUCCUCGUCACUCAGCAGGGCAUCUCUGAGAGAAAUGCC

In this data set the parent is B1. Put plainly: self-cleavage, relative activity (ratio to wild type); higher = more cleavage; in vitro, sequencing; the parent is a self-cleaving ribozyme.
With U26C A43G A138C A140C, the self-cleavage was found to be 1.23.
Consider A30G U62A A124U A138G, for which the self-cleavage was found to be 0.06.
For the variant A22U U85C U112C, the self-cleavage turned out to be 0.
In the case of A24G A43G U62C C123U, the self-cleavage was determined as 0.19.
As for U13C A117U U132C, the figure is 1.37.
For the variant U14C G33A A69U, the self-cleavage was determined as 0.1.
As for U14C A24G U39C G41U, the self-cleavage turned out to be 0.77.
For U13A U15C U108A, the self-cleavage came out at 1.15.
In the case of U14C A42G A50C U134A, the self-cleavage was 0.38.
As for U96C A124U U143C, the figure is 0.13; as for A6G U45C U134G, 0.51; as for U12C U52C A64U U130A, 0.87.
For G33U A43G A50G U112A U130C, the self-cleavage amounted to 0.
Regarding C51U A121G U132C, the self-cleavage came to 1.4.
Consider A2U A64U A69G A124G, for which the self-cleavage turned out to be 0.24.
On to U15C G75A G89U U115C A124U, for which the self-cleavage is 0.03.
Take U14A U134C A138G A140G: the self-cleavage turned out to be 0.
Take G36C A121G U130C: the self-cleavage came to 1.21.
For the variant U12G A94C U132C, the self-cleavage was found to be 0.45.
As for U13C U26A U52C, the figure is 1.17; as for A2U A31U A50U U62C, 0.12.
As for A6U U112C A138G, the figure is 0.79.
With G8A A59G A129G, the self-cleavage was found to be 0.54.
As to U46C U52C A77U A136G, the self-cleavage was found to be 2.1.
Regarding A59G U100C U115A, the self-cleavage is 0.16.
Turning to U12G A42G A92G, the self-cleavage amounted to 0.36.
Regarding U62C C66U U87C U109C, the self-cleavage was 0.05.
For U29A A30G U115C the value was 2.12; for U62C A78G U100C A121C, 0.
With C51U A77G U143A, the self-cleavage was 2.66.
As to A57U A64U A79G A138G, the self-cleavage amounted to 0.1.
With U14C U115A A124G, the self-cleavage worked out at 1.54.
On to U100A U104G U132C, for which the self-cleavage worked out at 0.
On to G8C U14C A142G, for which the self-cleavage stood at 0.82.
For the variant A22G U47A U85A A107G, the self-cleavage worked out at 0.32.
Take U9A A42G U46C A59U A65G: the self-cleavage is 0.
Turning to A24G U45C A77G, the self-cleavage came out at 2.58.
U1C U45G U134C: the self-cleavage is 0.97.
For A57C A79U U119C A138G the value was 0.21; for U29C A30U G36A A121U A140U, 1.1.
With A57G C68U U73A U109C A124G A129U A140G, the self-cleavage was 0.04.
As for U23C U132C C146U, the figure is 1; as for U26C A43C U132C, 1.78.
Take U62A U91C G127U: the self-cleavage is 0.05.
As for C19U U45C A67G A129G, the figure is 0; as for U14C U26C C84U, 0.27; as for U20C G40A U85C, 0.2.
As to U13A U23C A67G, the self-cleavage was 0.6.
For G34C A79G U96C, the self-cleavage came to 0.
On to U1A U87C U104A A129G, for which the self-cleavage worked out at 0.46.
With U62C A69G U81A U119A, the self-cleavage turned out to be 0.12.
With U14C A22G U26C C99U U100C U108C, the self-cleavage turned out to be 0.
Take U12C U26A U102C: the self-cleavage worked out at 1.37.
For A24G U62C C113A the value was 0.5.
Take A64G U96C U143C: the self-cleavage was 0.1.
Consider U14C U26C U96C, for which the self-cleavage turned out to be 0.
Take U13A A79G C98A U104A: the self-cleavage turned out to be 0.04.
For U14C U73C U96A U130A U134A A141G, the self-cleavage was 0.
For the variant A69U G75A A79G U102C A142G, the self-cleavage stood at 0.
For the variant U12C U14C A141G U143C, the self-cleavage came out at 1.89.
For U14C C63U U132C the value was 0.47; for A2U A65G A124G, 0.39; for A43G U85C C90U U115C A121U U130C A140G, 0.
For U1C U5C C116A the value was 0.8; for A42G U104A U109C A142G, 1.46; for U13A A94G U104C A121U, 0.34.
U9A C37A A92G U109C: the self-cleavage worked out at 0.18.
As for U47A U62C A69G, the self-cleavage came out at 0.02.
As to G33A U85C A94G A142G, the self-cleavage is 0.
For the variant G55A U130C A140G, the self-cleavage was determined as 0.43.
On to A22G U52C U62C, for which the self-cleavage amounted to 0.46.
As for U62C A69G A79G G93A G126A U143C, the figure is 0.01; as for U9A U47A G86A A121G, 0.04.
Take U1C U73A A92G U104C: the self-cleavage is 0.18.
Take U81C U108C A142G U143C: the self-cleavage came to 0.88.
As to A79G A92G C113U, the self-cleavage came to 0.03.
Turning to U73A U130A A138U, the self-cleavage turned out to be 1.36.
With U13C U87A U112C A142G, the self-cleavage amounted to 0.1.
U5A A42G U52A: the self-cleavage is 1.07.
Take A50U A59G U96C: the self-cleavage turned out to be 0.1.
As to A59U A79G C111U U134C, the self-cleavage stood at 0.73.
With U9A U102C U115C, the self-cleavage turned out to be 1.53.
As to G82A U96A A138C, the self-cleavage was determined as 0.1.
On to U73C A77G G86A A141G U143C, for which the self-cleavage turned out to be 0.29.
For U45C A94U A136G the value was 0.17; for U12G U52G A92G, 0; for U29C U73C A117U, 1.36.
As for U45C U96C C111U, the figure is 0.19.
Take U14C U47A G114A: the self-cleavage came out at 0.85.
U9C U91A A92G A136G: the self-cleavage stood at 0.08.
Take U12C U14C U143C: the self-cleavage was 1.07.
For U39C A64U U132C A142G the value was 0.51; for U12A C61U A78G, 0; for G4A C56U A94G U100C A141G, 0.04.
Take A50C U62C A142G: the self-cleavage was found to be 0.12.
Regarding U14C C19U A79G U96C A129C, the self-cleavage stood at 0.
G21A U47G A59G G105A A129G: the self-cleavage came out at 0.18.
On to A24G A50G A121U, for which the self-cleavage was 1.53.
For the variant U46A C123U A136U, the self-cleavage was 0.97.
Take A6G A50G A78G: the self-cleavage was 0.54.
As for U13C U91A A92U A107U, the self-cleavage worked out at 1.17.
C3U G35A U100C A124G: the self-cleavage was 1.39.
As for A79U A94G U100A, the figure is 0.22; as for U26C U119C C133A U134G, 1.08; as for A69G U85C A140G, 1.67.
For U9C C90U A129U the value was 0.08.
As to U20C U47A G58A A67U G80A U102C U112A, the self-cleavage is 0.
Regarding A124U A129U U130C C145G, the self-cleavage was determined as 1.44.
In the case of U14C U96G U109C, the self-cleavage is 0.35.
As for U20G U62A A67G, the figure is 0; as for A6G U39C A140G, 0; as for U1C A78U A136G, 1.34.
For U15C G58U A65U U85A G125U the value was 0.04.
For U20G U112C A141G the value was 1.16.
With A50G U109C U112C A129G, the self-cleavage worked out at 0.
For the variant A30G U62A U100C C110U U119C, the self-cleavage turned out to be 0.22.
Consider A77G C118U A124G, for which the self-cleavage was 1.26.
With U52A U108C A129U U130C G137U, the self-cleavage came out at 0.61.
For U45C A79U G83A the value was 1.1.
For U47C U52C U87A A136G, the self-cleavage was 0.09.
Turning to U81C A117C G126A, the self-cleavage is 1.88.
As to A64G A92G U108G, the self-cleavage is 0.
On to U5C U39A A124G, for which the self-cleavage turned out to be 0.51.
For U12G U26C U39A A50U the value was 0.74; for A30G U73A U109C, 1.5.
For the variant U108A U115A A124U, the self-cleavage was found to be 2.6.
Consider A6G U112C A142G U143A, for which the self-cleavage worked out at 1.73.
With A65G U104A U119A A141G, the self-cleavage was determined as 0.
In the case of A59G A107G U132C, the self-cleavage was 0.2.
Consider A31U A42G C51A A65G, for which the self-cleavage is 0.08.
Turning to A31U U46C U115C A129G, the self-cleavage was determined as 2.04.
Consider U5C A67C A136U, for which the self-cleavage was 0.
Consider G7A U102C U143G, for which the self-cleavage was 2.76.
Turning to G40U U91C U100G A121U A138G, the self-cleavage is 0.33.
Regarding A22G A59G U85C, the self-cleavage worked out at 0.
U15A U62C U119C A124U A140G A142G: the self-cleavage stood at 0.
On to U12C U45C A107G, for which the self-cleavage came to 0.46.
With A64G A77G A136G A141U, the self-cleavage was 0.72.
Consider U12C U73A U85C U96C A129G, for which the self-cleavage is 0.
For G7A C19U U104C G114A, the self-cleavage worked out at 1.09.
As to U100C U115C C131U, the self-cleavage came out at 1.73.
For U45G A50G A142G the value was 1.08; for U14C U52A U132C, 0.78.
On to U45C U47A A94G A121C, for which the self-cleavage was found to be 0.75.
U47C A67U U134A A136G: the self-cleavage is 0.06.
Take G41A G137U A142G: the self-cleavage turned out to be 1.42.
For G83A U108C A141U the value was 1.57.
Consider U12C A43G A79U, for which the self-cleavage worked out at 2.53.
For A31U G33A U47C A77G A107G A142G the value was 0.54; for U9C A42G G97A, 0.19.
Regarding U81C A124U U134A, the self-cleavage was 1.18.
Regarding A59G A77G U100C C146U, the self-cleavage came to 0.
As for A31G A69U C71U U96A, the self-cleavage amounted to 0.02.
Consider A24G U26A U102C A124G, for which the self-cleavage is 0.46.
In the case of G49A A59G G89A, the self-cleavage amounted to 0.03.
U9C A43G C84U A117C: the self-cleavage was determined as 0.38.
As for A30G A79U A107G, the self-cleavage worked out at 1.18.
For U52A C99G U119C A140U the value was 1.33; for A94C G97A U132C, 0.05.
For U1C U13C U102C A121G U130A the value was 0; for A59G G80A U112C, 0.12.
Turning to U5C C19U U108C, the self-cleavage turned out to be 2.09.
In the case of G72A U87C U134C, the self-cleavage was found to be 0.
For U45C A67G A78G, the self-cleavage turned out to be 0.2.
Regarding U13C U45C U62C A117C U132C, the self-cleavage was found to be 0.
For A22U U47A G74A A129U A138G, the self-cleavage is 0.65.
For the variant U39C U108C U109C, the self-cleavage amounted to 0.
